Each structure is given as a SMILES string.

The assay addresses hTRPA1-S873V/T874L (Homo sapiens, UniProt O75762, S873V/T874L). The assay can be described thus: cell-based.

Take `CC(C)c1ccc(NC(=O)Cn2cnc3c2c(=O)n(C)c(=O)n3C)cc1` [HC030031, 2-(1,3-dimethyl-2,6-dioxo-1,2,3,6-tetrahydro-7H-purin-7-yl)-N-(4-isopropylphenyl)acetamide]: inhibition was half-maximal at 8.51 ± 1.36 µM (IC50). With `CC(C)[C@@H]1CC[C@@H](C)C[C@H]1O` [Menthol, (-)-Menthol], the EC50 – broadly, the midpoint of the concentration-response curve – amounted to 161 ± 31.5 µM.

The record behind these values is publication PMC2678945 (The Journal of neuroscience : the official journal of the …, 2008).
